Data as given in paper PMC10912198.
Results are given in words; binding and its absence hold for the method and conditions named. Binding seen in cells or lysates may run through a third protein. Some results given as binding are weak or reduced against the parent protein; the word gives no strength. Where a sequence is shown, tags or fusion partners need not be part of it.

Chains of the proteins cited; added tags and fusions are not shown. Residues count along the entry.
UniProt Q9CXZ1, residues 43-175: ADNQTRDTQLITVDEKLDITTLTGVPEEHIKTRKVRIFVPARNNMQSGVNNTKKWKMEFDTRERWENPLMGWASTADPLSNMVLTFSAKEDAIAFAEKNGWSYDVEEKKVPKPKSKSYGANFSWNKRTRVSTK

What was measured:
[1] = target: GST-NDUFS4 fusion protein (UniProt Q9CXZ1); test: pull-down; 2 ug GST or GST-NDUFS4 immobilized on Glutathione Sepharose 4B beads, incubated 3 h at 4 C with cleared lysate (TNTE buffer) of HEK293T cells expressing STOML2-HA or deletion mutants; immunoblot; only the target purified
[2] = target: NDUFS4-FLAG (mouse) (UniProt Q9CXZ1); test: co-IP; HEK293T transiently transfected, crosslinked with 1 mM DSP 30 min, RIPA lysis diluted with NETN; Anti-FLAG M2 magnetic beads overnight at 4 C, 3X FLAG peptide elution, immunoblot; IgG as negative control

Row | binding [1] | binding [2] | Binder
1 | binds | – | STOML2-HA fusion protein (wild type, full length) (protein, UniProt Q99JB2 29-353) SSGLPRNTVILFVPQQEAWVVERMGRFHRILEPGLNVLIPVLDRIRYVQSLKEIVINVPEQSAVTLDNVTLQIDGVLYLRIMDPYKASYGVEDPEYAVTQLAQTTMRSELGKLSLDKVFRERESLNANIVDAINQAADCWGIRCLRYEIKDIHVPPRVKESMQMQVEAERRKRATVLESEGTRESAINVAEGKKQAQILASEAEKAEQINQAAGEASAVLAKAKAKAEAIRILAGALTQHNGDAAASLTVAEQYVSAFSKLAKDSNTVLLPSNPSDVTSMVAQAMGVYGALTKAPVPGAQNSSQSRRDVQATDTSIEELGRVKLS
2 | no binding | – | STOML2 ΔSTOM (Δ79–212)-HA (protein, UniProt Q99JB2) SSGLPRNTVILFVPQQEAWVVERMGRFHRILEPGLNVLIPVLDRIRYVQSSAINVAEGKKQAQILASEAEKAEQINQAAGEASAVLAKAKAKAEAIRILAGALTQHNGDAAASLTVAEQYVSAFSKLAKDSNTVLLPSNPSDVTSMVAQAMGVYGALTKAPVPGAQNSSQSRRDVQATDTSIEELGRVKLS
3 | binds | – | STOML2 ΔHP (Δ29–78)-HA (protein, UniProt Q99JB2) LKEIVINVPEQSAVTLDNVTLQIDGVLYLRIMDPYKASYGVEDPEYAVTQLAQTTMRSELGKLSLDKVFRERESLNANIVDAINQAADCWGIRCLRYEIKDIHVPPRVKESMQMQVEAERRKRATVLESEGTRESAINVAEGKKQAQILASEAEKAEQINQAAGEASAVLAKAKAKAEAIRILAGALTQHNGDAAASLTVAEQYVSAFSKLAKDSNTVLLPSNPSDVTSMVAQAMGVYGALTKAPVPGAQNSSQSRRDVQATDTSIEELGRVKLS

Second part, the binder before the results:

Row | Binder | binding [1] | binding [2]
4 | STOML2 ΔCTD (Δ213–353)-HA (domain or fragment, UniProt Q99JB2 29-212) SSGLPRNTVILFVPQQEAWVVERMGRFHRILEPGLNVLIPVLDRIRYVQSLKEIVINVPEQSAVTLDNVTLQIDGVLYLRIMDPYKASYGVEDPEYAVTQLAQTTMRSELGKLSLDKVFRERESLNANIVDAINQAADCWGIRCLRYEIKDIHVPPRVKESMQMQVEAERRKRATVLESEGTRE | binds | binds
5 | STOML2 Δ70–109-HA (protein, UniProt Q99JB2) SSGLPRNTVILFVPQQEAWVVERMGRFHRILEPGLNVLIPVMDPYKASYGVEDPEYAVTQLAQTTMRSELGKLSLDKVFRERESLNANIVDAINQAADCWGIRCLRYEIKDIHVPPRVKESMQMQVEAERRKRATVLESEGTRESAINVAEGKKQAQILASEAEKAEQINQAAGEASAVLAKAKAKAEAIRILAGALTQHNGDAAASLTVAEQYVSAFSKLAKDSNTVLLPSNPSDVTSMVAQAMGVYGALTKAPVPGAQNSSQSRRDVQATDTSIEELGRVKLS | no binding | –
6 | STOML2 Δ169–212-HA (protein, UniProt Q99JB2) SSGLPRNTVILFVPQQEAWVVERMGRFHRILEPGLNVLIPVLDRIRYVQSLKEIVINVPEQSAVTLDNVTLQIDGVLYLRIMDPYKASYGVEDPEYAVTQLAQTTMRSELGKLSLDKVFRERESLNANIVDAINQAADCWSAINVAEGKKQAQILASEAEKAEQINQAAGEASAVLAKAKAKAEAIRILAGALTQHNGDAAASLTVAEQYVSAFSKLAKDSNTVLLPSNPSDVTSMVAQAMGVYGALTKAPVPGAQNSSQSRRDVQATDTSIEELGRVKLS | no binding | –
7 | STOML2 Δ110–168-HA (protein, UniProt Q99JB2) SSGLPRNTVILFVPQQEAWVVERMGRFHRILEPGLNVLIPVLDRIRYVQSLKEIVINVPEQSAVTLDNVTLQIDGVLYLRIGIRCLRYEIKDIHVPPRVKESMQMQVEAERRKRATVLESEGTRESAINVAEGKKQAQILASEAEKAEQINQAAGEASAVLAKAKAKAEAIRILAGALTQHNGDAAASLTVAEQYVSAFSKLAKDSNTVLLPSNPSDVTSMVAQAMGVYGALTKAPVPGAQNSSQSRRDVQATDTSIEELGRVKLS | binds | –
